The values below come from patent US20220213140A1 (Chugai, published 2022).

To fix the notation:
B1: R2 (designed binder)
chain: ADNAFNTEQQNAFYEILHLPNLTEEQRNAFIQSLRDDPSKSKKILKEAKKLNKAQAPK
modifications: labeled with Biotin (Lys:Biotin = 12:1)
B2: PN2078 (designed binder)
chain: B1 chain with T7A
modifications: labeled with Biotin (Lys:Biotin = 12:1)
B3: PN190 (designed binder)
chain: B1 chain with R35A
modifications: labeled with Biotin (Lys:Biotin = 12:1)
B4: PN93 (designed binder)
chain: B1 chain with T7R
modifications: labeled with Biotin (Lys:Biotin = 12:1)
B5: PN2012 (designed binder)
chain: B1 chain with T7F
modifications: labeled with Biotin (Lys:Biotin = 12:1)
B6: PN132 (designed binder)
chain: B1 chain with T7V
modifications: labeled with Biotin (Lys:Biotin = 12:1)
B7: PN127 (designed binder)
chain: B1 chain with T7Q
modifications: labeled with Biotin (Lys:Biotin = 12:1)
B8: PN194 (designed binder)
chain: B1 chain with R35E
modifications: labeled with Biotin (Lys:Biotin = 12:1)
B9: PN129 (designed binder)
chain: B1 chain with T7L
modifications: labeled with Biotin (Lys:Biotin = 12:1)
B10: PN2082 (designed binder)
chain: B1 chain with T7P
modifications: labeled with Biotin (Lys:Biotin = 12:1)
B11: PN131 (designed binder)
chain: B1 chain with T7H
modifications: labeled with Biotin (Lys:Biotin = 12:1)
B12: PN195 (designed binder)
chain: B1 chain with R35T
modifications: labeled with Biotin (Lys:Biotin = 12:1)
B13: PN197 (designed binder)
chain: B1 chain with R35L
modifications: labeled with Biotin (Lys:Biotin = 12:1)
B14: PN2011 (designed binder)
chain: B1 chain with T7Y
modifications: labeled with Biotin (Lys:Biotin = 12:1)
B15: PN130 (designed binder)
chain: B1 chain with T7I
modifications: labeled with Biotin (Lys:Biotin = 12:1)
B16: PN128 (designed binder)
chain: B1 chain with T7E
modifications: labeled with Biotin (Lys:Biotin = 12:1)
B17: PN196 (designed binder)
chain: B1 chain with R35V
modifications: labeled with Biotin (Lys:Biotin = 12:1)
B18: PN133 (designed binder)
chain: B1 chain with R35H
modifications: labeled with Biotin (Lys:Biotin = 12:1)

Where a chain is given by its changes, count along the chain named.

T1 sequence (constant, as listed by the source limits assumed): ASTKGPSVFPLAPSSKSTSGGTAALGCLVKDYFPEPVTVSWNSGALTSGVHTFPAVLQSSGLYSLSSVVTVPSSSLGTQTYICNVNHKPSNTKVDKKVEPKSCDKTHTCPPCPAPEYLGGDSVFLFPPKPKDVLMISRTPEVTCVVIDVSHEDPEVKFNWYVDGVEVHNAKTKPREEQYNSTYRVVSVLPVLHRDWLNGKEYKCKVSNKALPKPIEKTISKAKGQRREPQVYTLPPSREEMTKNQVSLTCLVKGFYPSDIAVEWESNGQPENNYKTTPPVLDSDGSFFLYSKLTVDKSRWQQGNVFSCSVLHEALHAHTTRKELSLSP

The experiment has as its target T1, Antibody A.
T1 construct: also called pI-modified antibody
Nature of the experiment: BLI (BLItz), biotinylated ligand monomer on sensor, antibody in solution.
For B1, the dissociation constant Kd (commonly the constant that tells how readily two partners part at equilibrium) came to 539 nM. For B2 the value was 258 nM; for B3, 91300 nM. The result for B4 reads 322 nM. Consider B5, for which binding was characterised by a dissociation constant (Kd) of 152 nM. For B6 the value was 309 nM. The result for B7 reads 265 nM; that for B8, 257000 nM. For the molecule B9, binding was put at a Kd of 359 nM. B10 had a dissociation constant Kd of 1630 nM. Take B11: the Kd was found to be 314 nM. As for B12, the affinity, expressed as Kd, was 171000 nM. The result for B13 reads 120000 nM; that for B14, 102 nM; that for B15, 310 nM. For B16 the value was 176000 nM; for B17, 1100 nM; for B18, 80100 nM.
